The source of these data is PMC12040169 (PLOS Biology, 2025).

Each structure is given as a SMILES string. Some of the results follow.

This assay concerns T1, C. trachomatis L2/434/Bu expressing GFP (CTL2-GFP).
T1 construct: L2/434/Bu GFP intracellular growth in HeLa cells
The arrangement: species or system HeLa; C. trachomatis total inclusion area by high-content imaging, normalised to DMSO. The following applies: total inclusion area; 28.5 h, 10 µM; inhibitor. Put shortly: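 Host cell viability was gauged from Hoechst-stained nuclei counts, while chlamydial growth was taken from total inclusion area and inclusion number per well. Cells were fixed and imaged by high-content microscopy once bulk GFP and resorufin fluorescence had been measured.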
On to `CC(=O)N1CCc2sccc2C1c1ccc(NC(=O)c2ccco2)cc1` (centres unmarked) [CBK286199], for which the “% of control remaining” value came to 107.854.

In the case of `O=C(Nc1ccc(N2CCNCC2)nc1)C1CCCO1` (centres unmarked) [CBK004748T], the “% of control remaining” value stood at 112.307.

In the case of `CC(C)(CN)CN(Cc1ccccc1C(F)(F)F)C(=O)Nc1ccc(C(C)(C)C)cc1` [CBK026828C], the “% of control remaining” value is given as 57.213.

In the case of `CN1CCN(S(=O)(=O)c2cccc(C(F)(F)F)c2)CC1` [CBK062425], the “% of control remaining” value amounted to 108.347.

In the case of `O=S(=O)(c1ccc(C2=CSC3=NCCN23)cc1)N1CCOCC1` [CBK019381], the “% of control remaining” value was found to be 100.337.

In the case of `COc1cccc(C(CNS(=O)(=O)c2ccc3c(c2)OCCCO3)N(C)C)c1` (centres unmarked) [CBK298270], the “% of control remaining” value was found to be 69.965.

Turning to `O=C(Cc1ccc(Cl)c(Cl)c1)NC(c1ccccc1)c1ccccn1` (centres unmarked) [CBK144110], the “% of control remaining” value is on record as 90.8627.

On to `COC(=O)Cn1c(-c2ccc(F)cc2)cc2cccnc21` [CBK282763], for which the “% of control remaining” value is on record as 104.378.

For `O=C(NC(Nc1cccc(C(F)(F)F)c1)C(=O)c1ccccc1)c1ccc(Cl)cc1` (centres unmarked) [CBK263585], the “% of control remaining” value turned out to be 95.2019.

For `Cc1csc(NC(=O)Cc2ccccc2F)n1` [CBK288252], the “% of control remaining” value worked out at 84.9218.

For `C=CCN(c1ccc(C(=O)O)cc1)S(=O)(=O)c1ccc(/C=C/C(=O)O)cc1` [CBK263364], the “% of control remaining” value came to 103.749.

On to `CC(C(=O)NC1(C#N)CCCCC1)N1CCOC(c2nccs2)C1` (centres unmarked) [CBK305299], for which the “% of control remaining” value is recorded as 68.0738.

As for `OCc1ccccc1-c1nccnc1NCc1ccc2c(c1)OCO2` [CBK038046], the “% of control remaining” value worked out at 30.2081.

For the molecule `Cc1nc(-c2ccccc2)c(CC(=O)N(C)CCN(C)C)s1` [CBK282725], the “% of control remaining” value is on record as 95.5454.

`O=C1NCC2(CCCN(C(=O)c3cccs3)C2)Oc2ccccc21` (centres unmarked) [CBK284900]: the “% of control remaining” value was 91.1487.

Consider `CCOC(=O)c1sc(-c2c(Cl)cc(C(F)(F)F)cc2Cl)nc1O` [CBK078547], for which the “% of control remaining” value came out at 86.0916.

Regarding `Cc1cnc(CNC(=O)N2CCN(C3CCN(C)CC3)CC2)cn1` [CBK155886], the “% of control remaining” value is 128.936.

For `Cn1c(N2CC[C@H](O)C2)nc2cc(C(=O)NCCc3cscn3)ccc21` [CBK306824], the “% of control remaining” value stood at 57.3471.

For `O=C(O)CN1C(=O)/C(=C\c2ccc(Oc3ccc(C(F)(F)F)cc3[N+](=O)[O-])cc2)SC1=S` [CBK264809], the “% of control remaining” value was found to be 115.239.

On to `O=C(CN1CCC2(CC1)CN(C(=O)CO)c1ccccc12)c1ccsc1` [CBK144605T], for which the “% of control remaining” value stood at 79.9136.

As to `CS(=O)(=O)c1ccc2ncnc(NCC(CO)Cc3ccccn3)c2c1` (centres unmarked) [CBK306493], the “% of control remaining” value worked out at 57.8461.

`C=CCN(CC=C)Cc1c(C)nc2ccc(CC)cc2c1O` [CBK264998]: the “% of control remaining” value stood at 111.307.

On to `O=C(Nc1ccc(S(=O)(=O)Nc2ncccn2)cc1)c1ccc2c(c1)OCCO2` [CBK268132], for which the “% of control remaining” value was 39.6017.

As to `Clc1ccc(OCc2ccccc2)c(CNCc2ccccn2)c1` [CBK269850C], the “% of control remaining” value was 49.9177.

Turning to `CSc1cc(CC(C)(C)C)c2cccc(F)c2n1` [CBK018791], the “% of control remaining” value came to 9.069.

As for `O=C(Nc1cnccn1)c1ccc(Cl)cc1Cl` [CBK056922], the “% of control remaining” value worked out at 20.8537.

In the case of `O=C1N=C(NC2CCCCCC2)SC1CCNC(=O)N1CCOCC1` (centres unmarked) [CBK067687], the “% of control remaining” value was determined as 66.6151.

As to `Cc1noc(C)c1CC(=O)NC(C)c1cc2cc(Cl)ccc2o1` (centres unmarked) [CBK281445], the “% of control remaining” value was determined as 105.144.

Regarding `COc1cc(Nc2nc(-c3cccc(C(=O)NCCN(C)C)c3)cn3ccnc23)cc(OC)c1OC` [CBK066250], the “% of control remaining” value came to 108.797.

Take `COCCn1c(Cc2ccccc2)nnc1SCc1ccc2ccccc2c1` [CBK265985]: the “% of control remaining” value amounted to 136.787.

Consider `Cc1cc2ncc3c(n2n1)CC1CCC3N1C(=O)CCc1ccco1` (centres unmarked) [CBK284380], for which the “% of control remaining” value was 89.219.

Consider `NC(=O)c1cccc(CNC2CCCN(c3cccnn3)C2)c1` (centres unmarked) [CBK305115], for which the “% of control remaining” value was 56.022.

Turning to `COc1ccc(-n2nc([N+](=O)[O-])c(NCc3ccccn3)[n+]2[O-])cc1` [CBK268430], the “% of control remaining” value stood at 90.5868.

As for `COc1ccnc(N2CCN(C(=O)c3c4c(nn3C)CCCC4)CC2)n1` [CBK304609], the “% of control remaining” value was found to be 67.7575.

For `CCC(C)c1csc(C2CN3CCCC3CO2)n1` (centres unmarked) [CBK304805], the “% of control remaining” value is 81.6471.

For `CS(=O)(=O)Nc1ccccc1C(=O)NCCCN1CCOCC1` [CBK269745], the “% of control remaining” value stood at 113.699.

Turning to `O=c1c(Cc2ccccc2)c(O)c2ccccc2n1Cc1ccccc1` [CBK219368], the “% of control remaining” value amounted to 105.309.

For `Cc1cc(C)n2nc(C(=O)N3CCC(C)CC3c3ccco3)nc2n1` (centres unmarked) [CBK305196], the “% of control remaining” value came out at 27.8149.

With `Cc1nn(C)c(C)c1CNC(=O)N1CCN(CC(F)F)CC1` [CBK304249], the “% of control remaining” value is 44.7154.

For the molecule `O=C(O)CSc1nc2ccc([N+](=O)[O-])cc2[nH]1` [CBK265192], the “% of control remaining” value is recorded as 98.5818.

With `NC(=O)CN1CCC(Oc2cncc(OCc3cccnc3)n2)C1` (centres unmarked) [CBK084459], the “% of control remaining” value stood at 94.2618.

On to `CC1CCN(CC(C)(C)n2cncc2-c2cnn(C)c2)CC1` [CBK281738], for which the “% of control remaining” value worked out at 77.5304.

For the molecule `CC(=O)N1CCN(C(C(=O)O)c2cn(Cc3ccccc3)c3ccc(C(=O)O)cc23)CC1` (centres unmarked) [CBK286648], the “% of control remaining” value was 102.336.

Take `COc1ccc(C(=O)N2C[C@@H](C)O[C@@H](C)C2)c(OC)n1` [CBK200231]: the “% of control remaining” value amounted to 119.157.

Take `COc1ccc(CCC(=O)N2CCC(N(C)Cc3ccc(-c4ccc(S(C)(=O)=O)cc4)nc3)CC2)cc1Cl` [CBK164102T]: the “% of control remaining” value turned out to be 48.27.

For `COc1ccc(-c2ccc3ccc(NC(=O)C(C)C)nc3n2)cc1C` [CBK073665], the “% of control remaining” value is listed as 83.5817.

Turning to `CC(C)[C@H](CO)n1c(=O)[nH]c2ncc(-c3cccc(CO)c3)nc21` [CBK065001], the “% of control remaining” value is 111.398.

As to `Brc1cncc2c1ccn2CCN1CCOCC1` [CBK083479], the “% of control remaining” value was determined as 50.8026.

As for `COCCN1CC(CNC(=O)c2ccc(N3CCCC3)c(Cl)c2)CC1=O` (centres unmarked) [CBK307680], the “% of control remaining” value is 65.2275.

As for `CCCCC(=O)NC(c1ccccc1OC)c1cc(Cl)c2cccnc2c1O` (centres unmarked) [CBK110947], the “% of control remaining” value amounted to 72.7579.

Consider `COc1ccc(-c2cnc3[nH]c(=O)n(C4CC4)c3n2)cc1` [CBK064907], for which the “% of control remaining” value was determined as 106.548.

With `Cc1n[nH]c(C)c1CNC(=O)c1cccc2c(C)c(C)[nH]c12` [CBK283068], the “% of control remaining” value is given as 110.72.

For the molecule `O=C(O)CCSc1nc2ccccc2n1-c1ccccc1` [CBK264215], the “% of control remaining” value is 110.065.

As to `Cc1nc(N2CCOCC2)[nH]c(=O)c1CCC(=O)Nc1ccc(F)cc1` [CBK304990], the “% of control remaining” value is listed as 64.9654.

With `Cc1cccc([C@H]2CN(C(=O)C3CCCC3)[C@@H]3CCN(C4CCCC4)C[C@H]23)c1` [CBK285529], the “% of control remaining” value turned out to be 80.1768.

For the molecule `COc1ccc(C(C)NC(=O)C2CCCCC2C(=O)O)cc1OC` (centres unmarked) [CBK270309], the “% of control remaining” value came to 81.449.

In the case of `Cn1ccnc1[S+]([O-])Cc1nc2ccccc2s1` (centres unmarked) [CBK005549], the “% of control remaining” value turned out to be 86.1523.

With `[O-][n+]1c2c([n+]([O-])c3c1CCCC3)CCCC2` [CBK261714], the “% of control remaining” value is 107.093.

Turning to `CC(=O)Nc1nc(-c2ccc(Cl)s2)cs1` [CBK287317], the “% of control remaining” value is listed as 111.967.

With `c1cc(-c2nccnc2NCC2CCCCC2)ccn1` [CBK037627], the “% of control remaining” value came out at 111.73.

For the molecule `NCC1CCN(c2nc(-c3cc(C(F)(F)F)cc(C(F)(F)F)c3)cnc2N)CC1` [CBK063960], the “% of control remaining” value stood at 117.168.

As for `Cc1ccc(NC(=O)c2c[nH]c(=O)[nH]c2=O)cc1` [CBK113246], the “% of control remaining” value is 103.225.

As to `NCCNc1ccc([N+](=O)[O-])c(NCc2ccccc2)c1` [CBK262757C], the “% of control remaining” value is given as 69.143.

Turning to `NC(=O)c1ccc(NC(=O)COc2ccc3ccccc3c2)cc1` [CBK263738], the “% of control remaining” value is reported as 96.726.

On to `CCn1cc(CN2C3CCC2CC(O)(c2ccc(F)cc2)C3)cn1` (centres unmarked) [CBK282741], for which the “% of control remaining” value came to 98.4323.

Take `O=C(NCc1cccc2ccccc12)N1CCN(Cc2ccccc2)CC1` [CBK155628]: the “% of control remaining” value is listed as 90.0701.

For the molecule `O=C(NC(C(=O)N/N=C/c1ccc(O)cc1)c1n[nH]c(=O)c2ccccc12)c1ccccc1` (centres unmarked) [CBK262839], the “% of control remaining” value is on record as 58.1513.

As for `CC(C)Cn1c(=O)[nH]c2ncc(-c3ccc(C(=O)NC4CCCC4)cc3)nc21` [CBK064551], the “% of control remaining” value was found to be 122.197.

`CCCSc1cc(=O)oc2ccccc12` [CBK017493]: the “% of control remaining” value turned out to be 36.2716.

For `COc1cccc(C(=O)N2CC=C[C@H]2C(=O)NC2CC2)c1` [CBK284278], the “% of control remaining” value was 42.0043.

On to `O=S(=O)(c1ccc(-c2ccc(S(=O)(=O)N3CCCCC3)cc2)cc1)N1CCCCC1` [CBK261257], for which the “% of control remaining” value is listed as 92.1789.

`COc1cccc(CC(=O)N2CCCC(c3cc4ncccc4[nH]3)C2)c1` (centres unmarked) [CBK283426]: the “% of control remaining” value is on record as 94.1275.

For the molecule `O=C1c2cc(-c3nc(-c4ccccc4)[nH]c3-c3ccccc3)ccc2-c2ccc([N+](=O)[O-])cc21` [CBK262613], the “% of control remaining” value turned out to be 111.105.

Regarding `CCc1ccc(CC)c(S(=O)(=O)NC(CC(=O)O)c2ccccc2)c1` (centres unmarked) [CBK266208], the “% of control remaining” value is 122.002.

Turning to `O=C(CSc1nc(=O)cc(O)[nH]1)c1ccccc1` [CBK026570], the “% of control remaining” value amounted to 108.121.

Turning to `NC(=O)c1ccc(-c2cncc(NCc3ccco3)n2)cc1` [CBK065383], the “% of control remaining” value is given as 91.6505.

As to `CCOc1ccc2c(c1)CN(CCCc1nc(C)no1)CC2` [CBK305076], the “% of control remaining” value is listed as 90.0521.

With `O=C(Nc1ccccc1C(=O)O)c1cc(S(=O)(=O)Nc2ccc(F)cc2)ccc1Cl` [CBK263248], the “% of control remaining” value amounted to 108.22.

`O=C(NCc1ccccc1)C1CCCN(c2ncnc3[nH]cnc23)C1` (centres unmarked) [CBK287916]: the “% of control remaining” value is 28.701.

Consider `Cc1ccc2c(c1)C(=O)CC1(CCN(C(=O)Cc3c(C)[nH]c(=O)[nH]c3=O)CC1)O2` [CBK285688], for which the “% of control remaining” value turned out to be 103.068.
